Measurements taken from the supplement of paper PMC4604168 (melanoma cell lines).
The list shows a part of the results. Most values come without repeats; read them as rough.

Tested on: WM115
Assay: cell count relative to DMSO control; melanoma cells; higher = more viable cells
Details: library dose: low library concentration; 72 h
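Also: cell number obtained by counting DAPI-stained nuclei in high-throughput microscope images with image analysis software, screen run in 1,536-well plates.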

Row | Structure (SMILES) | cell count [%]
1 | CS(=O)(=O)CCNCc1ccc(-c2ccc3ncnc(Nc4ccc(OCc5cccc(F)c5)c(Cl)c4)c3c2)o1 [lapatinib] + NC(=O)Nc1cc(-c2cccc(F)c2)sc1C(=O)N[C@H]1CCCNC1 [AZD7762] (first compound 0.8 µM, partner dose 0.02 µM) | 98.7
2 | C[C@@H](Oc1cc(-c2cnn(C3CCNCC3)c2)cnc1N)c1c(Cl)ccc(F)c1Cl [Crizotinib] + O=C(Nc1ccccc1)c1cc([N+](=O)[O-])ccc1Cl [GW9662] (first compound 0.2 µM, partner dose 2 µM) | 91.6
3 | CNC(=O)c1cc(Oc2ccc(NC(=O)Nc3ccc(Cl)c(C(F)(F)F)c3)cc2)ccn1 [sorafenib] + Cc1cc(N2CCOCC2)cc2[nH]c(-c3c(NC[C@@H](O)c4cccc(Cl)c4)cc[nH]c3=O)nc12 [BMS536924] (first compound 0.4 µM, partner dose 0.2 µM) | 115
4 | CN1CCN(c2ccc3nc(-c4c(N)c5c(F)cccc5[nH]c4=O)[nH]c3c2)CC1 [Dovitinib] + CC(C)(C)c1cnc(CSc2cnc(NC(=O)C3CCNCC3)s2)o1 [SNS-032] (first compound 0.1 µM, partner dose 0.01 µM) | 96.1
5 | C=CCNC1=C2C[C@@H](C)C[C@H](OC)[C@H](O)[C@@H](C)/C=C(\C)[C@H](OC(N)=O)[C@@H](OC)/C=C\C=C(/C)C(=O)NC(=CC1=O)C2=O [Tanespimycin] + NCC(=O)Nc1ccc(-n2nc(C(F)(F)F)cc2-c2ccc3c(ccc4ccccc43)c2)cc1 [OSU03012] (first compound 0.002 µM, partner dose 1 µM) | 74.8
6 | CS(=O)(=O)CCNCc1ccc(-c2ccc3ncnc(Nc4ccc(OCc5cccc(F)c5)c(Cl)c4)c3c2)o1 [lapatinib] + COc1ccc(-c2ccc3c(N4CCOCC4)nc(N4C[C@@H](C)O[C@@H](C)C4)nc3n2)cc1CO [KU0063794] (first compound 0.8 µM, partner dose 0.02 µM) | 102
7 | C=CCNC1=C2C[C@@H](C)C[C@H](OC)[C@H](O)[C@@H](C)/C=C(\C)[C@H](OC(N)=O)[C@@H](OC)/C=C\C=C(/C)C(=O)NC(=CC1=O)C2=O [Tanespimycin] + COC(=O)c1sccc1S(=O)(=O)Nc1ccc(Nc2ccccc2)cc1OC [GSK0660] (first compound 0.002 µM, partner dose 1 µM) | 103
8 | C[C@@H](Oc1cc(-c2cnn(C3CCNCC3)c2)cnc1N)c1c(Cl)ccc(F)c1Cl [Crizotinib] + O=C(O)C(=O)Nc1sc2c(c1C(=O)O)CCNC2 [TCS401] (first compound 0.2 µM, partner dose 1.66667 µM) | 95.8
9 | CS(=O)(=O)CCNCc1ccc(-c2ccc3ncnc(Nc4ccc(OCc5cccc(F)c5)c(Cl)c4)c3c2)o1 [lapatinib] + COc1cc(Nc2ncc(F)c(Nc3ccc4c(n3)NC(=O)C(C)(C)O4)n2)cc(OC)c1OC [Tamatinib] (first compound 0.8 µM, partner dose 0.4 µM) | 83
10 | C[C@@H](Oc1cc(-c2cnn(C3CCNCC3)c2)cnc1N)c1c(Cl)ccc(F)c1Cl [Crizotinib] + CO[C@H]1C[C@@H]2CC[C@@H](C)[C@@](O)(O2)C(=O)C(=O)N2CCCC[C@H]2C(=O)O[C@H]([C@H](C)C[C@@H]2CC[C@@H](OCCO)[C@H](OC)C2)CC(=O)[C@H](C)/C=C(\C)[C@@H](O)[C@@H](OC)C(=O)[C@H](C)C[C@H](C)/C=C/C=C/C=C/1C [everolimus] (first compound 0.2 µM, partner dose 0.02 µM) | 73
11 | CN1CCN(c2ccc3nc(-c4c(N)c5c(F)cccc5[nH]c4=O)[nH]c3c2)CC1 [Dovitinib] + C[C@]1(c2nc3c(C(N)=O)cccc3[nH]2)CCCN1 [Veliparib] (first compound 0.1 µM, partner dose 1.4 µM) | 87.5
12 | C[C@@H](Oc1cc(-c2cnn(C3CCNCC3)c2)cnc1N)c1c(Cl)ccc(F)c1Cl [Crizotinib] + O=C1NC(=O)/C(=C/c2ccc(-c3ccc(F)cc3O)o2)S1 [AS252424] (first compound 0.2 µM, partner dose 1 µM) | 94.1
13 | CS(=O)(=O)CCNCc1ccc(-c2ccc3ncnc(Nc4ccc(OCc5cccc(F)c5)c(Cl)c4)c3c2)o1 [lapatinib] + O=C1NC(=O)/C(=C/c2ccc(-c3ccc(F)cc3O)o2)S1 [AS252424] (first compound 0.8 µM, partner dose 1 µM) | 91.5
14 | CN1CCN(c2ccc3nc(-c4c(N)c5c(F)cccc5[nH]c4=O)[nH]c3c2)CC1 [Dovitinib] + CN(NC(=O)CC(=O)NN(C)C(=S)c1ccccc1)C(=S)c1ccccc1 [STA4783] (first compound 0.1 µM, partner dose 0.006 µM) | 77.9
15 | C[C@@H](Oc1cc(-c2cnn(C3CCNCC3)c2)cnc1N)c1c(Cl)ccc(F)c1Cl [Crizotinib] + CNC(=O)c1cc(Oc2ccc(NC(=O)Nc3ccc(Cl)c(C(F)(F)F)c3)cc2)ccn1 [sorafenib] (first compound 0.2 µM, partner dose 0.4 µM) | 98.3
16 | CS(=O)(=O)CCNCc1ccc(-c2ccc3ncnc(Nc4ccc(OCc5cccc(F)c5)c(Cl)c4)c3c2)o1 [lapatinib] + CCc1ccc(CCOc2ccc(CC3SC(=O)NC3=O)cc2)nc1 [pioglitazone] (first compound 0.8 µM, partner dose 2 µM) | 103
17 | C[C@@H](Oc1cc(-c2cnn(C3CCNCC3)c2)cnc1N)c1c(Cl)ccc(F)c1Cl [Crizotinib] + CCN(CC)CCCCNc1ncc2cc(-c3cc(OC)cc(OC)c3)c(NC(=O)NC(C)(C)C)nc2n1 [PD173074] (first compound 0.2 µM, partner dose 0.1 µM) | 91.5
18 | C[C@@H](Oc1cc(-c2cnn(C3CCNCC3)c2)cnc1N)c1c(Cl)ccc(F)c1Cl [Crizotinib] + CC(C)(C)c1cnc(CSc2cnc(NC(=O)C3CCNCC3)s2)o1 [SNS-032] (first compound 0.2 µM, partner dose 0.01 µM) | 103
19 | CNC(=O)c1cc(Oc2ccc(NC(=O)Nc3ccc(Cl)c(C(F)(F)F)c3)cc2)ccn1 [sorafenib] + NC(=O)Nc1cc(-c2cccc(F)c2)sc1C(=O)N[C@H]1CCCNC1 [AZD7762] (first compound 0.4 µM, partner dose 0.02 µM) | 97.2
20 | CN1CCN(c2ccc3nc(-c4c(N)c5c(F)cccc5[nH]c4=O)[nH]c3c2)CC1 [Dovitinib] + Nc1nc(F)nc2c1ncn2[C@@H]1O[C@H](CO)[C@@H](O)[C@@H]1O [fludarabine] (first compound 0.1 µM, partner dose 0.2 µM) | 88.4
21 | CS(=O)(=O)CCNCc1ccc(-c2ccc3ncnc(Nc4ccc(OCc5cccc(F)c5)c(Cl)c4)c3c2)o1 [lapatinib] + O=S(=O)(c1ccccc1)N(CC(F)(F)F)c1ccc(C(O)(C(F)(F)F)C(F)(F)F)cc1 [T0901317] (first compound 0.8 µM, partner dose 1.4 µM) | 112
22 | CN1CCN(c2ccc3nc(-c4c(N)c5c(F)cccc5[nH]c4=O)[nH]c3c2)CC1 [Dovitinib] + O=C(CCCCCCC(=O)Nc1ccccc1)NO [vorinostat] (first compound 0.1 µM, partner dose 0.08 µM) | 94.7
23 | C[C@@H](Oc1cc(-c2cnn(C3CCNCC3)c2)cnc1N)c1c(Cl)ccc(F)c1Cl [Crizotinib] + Cn1cc(/C=C2\C(=O)Nc3cccnc32)c2ccccc21 [GW441756] (first compound 0.2 µM, partner dose 0.4 µM) | 97.6
24 | CN1CCN(c2ccc3nc(-c4c(N)c5c(F)cccc5[nH]c4=O)[nH]c3c2)CC1 [Dovitinib] + Cc1cc(N2CCOCC2)cc2[nH]c(-c3c(NC[C@@H](O)c4cccc(Cl)c4)cc[nH]c3=O)nc12 [BMS536924] (first compound 0.1 µM, partner dose 0.2 µM) | 93.6
25 | CS(=O)(=O)CCNCc1ccc(-c2ccc3ncnc(Nc4ccc(OCc5cccc(F)c5)c(Cl)c4)c3c2)o1 [lapatinib] + Clc1ccc(Nc2nnc(Cc3ccncc3)c3ccccc23)cc1 [vatalanib] (first compound 0.8 µM, partner dose 2 µM) | 101
